Here are results for 56 molecules from PubChem BioAssay AID463173 (ICCB-Longwood Screening Facility, Harvard Medical School, 2010).

In all, about 52,000 compounds went through this assay and about 4,300 (8.3%) were called active. Rule as the data show it: active = survival mostly below about 52% (no sharp cut-off); inactive = mostly above about 56%. The list shows a part of the results.

The assay relates to DeltatarO mutant. Briefly: growth inhibition of S. aureus wild type versus tarO mutant, primary screen, teichoic acid synthesis inhibitors, RN4220, OD600 (AID 463173). The settings on record: OD600, 18 h, active compounds read low, screened at 18.75 µg/mL (by protocol).
For `CCOC(=O)c1c(NC(=O)c2cc(-c3ccc(Cl)cc3)on2)sc(C)c1C`, the survival is inactive: 68%.

With `COc1ccc(CCNC(=O)C2CCCN2C(=O)NC2CCCCC2)cc1OC` (stereo unspecified), the survival was inactive: 90%.

For the molecule `Cc1ccc(-c2nc3c4ccccc4n(CC(=O)N4CCN(c5ccc(F)cc5)CC4)c(=O)n3n2)cc1`, the survival is inactive: 74%.

As to `Cc1cc(C)cc(Nc2cc(C)nc3nc(-c4ccco4)nn23)c1`, the survival was inactive: 94%.

Take `Cc1ccc(C(CC(=O)Nc2ccc(F)c(Cl)c2)N2Cc3ccccc3C2=O)cc1` (stereo unspecified): the survival was inactive: 88%.

Regarding `CC(C)c1ccc(NC(=O)CCn2c(=O)c3cccn3c3ccccc32)cc1`, the survival is inactive: 57%.

On to `COc1cccc(CNCCSc2nnnn2C)c1OCc1ccc(F)cc1`, for which the survival was inactive: 52%.

`Cc1ccc(N2CC(NC(=O)C3CC3)CC2=O)cc1C` (stereo unspecified): the survival was inactive: 94%.

Consider `CCOC(=O)c1ccn(-c2nc(-c3cccc(OC)c3)cc(C(F)(F)F)n2)n1`, for which the survival is active: 18%.

As to `Cc1nc2sccn2c(=O)c1S(=O)(=O)Nc1ccc(N2CCN(C(=O)C(C)C)CC2)cc1`, the survival was inactive: 89%.

Regarding `COc1cc(C(=O)Nc2nonc2-c2ccc(Cl)cc2)cc(OC)c1OC`, the survival is inactive: 49%.

As for `CCOC(=O)c1[nH]c(C)c(CCC(=O)Nc2ccc(Br)c(C)c2)c1C`, the survival is inactive: 81%.

`Cc1ccc(Cl)cc1NC(=O)Cn1ncc2c(C)n(Cc3ccccc3F)c(C)c2c1=O`: the survival was inactive: 52%.

For `CC(C)(C)NC(=O)c1ccc2nc(CCc3ccccc3)oc2c1`, the survival is inactive: 57%.

Regarding `CC1CN(C(=O)CCC(=O)NCc2ccccc2)c2cc(Cl)ccc2O1` (stereo unspecified), the survival was inactive: 74%.

For `COc1ccc(-c2nc(-c3ccccc3)c(-c3ccc(F)cc3)[nH]2)c(OC)c1C`, the survival was active: 5%.

Turning to `Cc1cc(C)cc(N2C(=O)CCSC23C(=O)N(Cc2ccccc2)c2ccccc23)c1` (stereo unspecified), the survival is inactive: 67%.

`CCOc1ccc(CCNC(=O)c2ccc3c(c2)sc2nc(-c4ccc(F)cc4)cn23)cc1OCC`: the survival was active: 42%.

For `O=S(=O)(NCCc1csc2nc(-c3ccc(F)cc3)nn12)c1ccc(Oc2ccccc2)cc1`, the survival is inactive: 88%.

Regarding `Cc1ccc(C2C=C(c3ccc(Cl)cc3)Nc3nc(NC(=O)c4ccco4)nn32)cc1` (stereo unspecified), the survival is inactive: 67%.

With `Cc1ccc(C)c(N2CCN(S(=O)(=O)c3ccc4c(c3)OCCO4)CC2)c1`, the survival was inactive: 76%.

With `CCCC12CN3CC(CCC)(CN(C1)C3c1c(C)[nH]c(=O)[nH]c1=O)C2=O` (stereo unspecified), the survival was inactive: 109%.

Consider `O=C(Nc1ccc(F)cc1F)N1CCN(c2ccc(Cl)c(Cl)c2)CC1`, for which the survival was active: 48%.

Consider `CCc1nn(Cc2c(C)cc(C)cc2C)c(=O)c2cc3cc(C)ccc3n12`, for which the survival is inactive: 88%.

With `Cn1nnnc1SCCCNCc1cc(Cl)ccc1OCc1ccccc1F`, the survival is inactive: 70%.

Regarding `Cc1sc2ncnc(SCC(N)=O)c2c1C`, the survival is inactive: 115%.

For the molecule `Cc1ccc(NC(=O)Cn2cnc3sc(C)c(S(=O)(=O)N4CCN(c5ncccn5)CC4)c3c2=O)cc1F`, the survival is inactive: 68%.

As for `Cc1cccc(N2CCN(S(=O)(=O)c3c(C(=O)N4CCC(C)CC4)c(C)n(C)c3C)CC2)c1C`, the survival is inactive: 89%.

Consider `COc1ccc(NC(=O)CSC2=Nc3ccccc3C3=NC(CC(=O)NCc4ccc5c(c4)OCO5)C(=O)N23)cc1` (stereo unspecified), for which the survival is inactive: 81%.

With `CC1CCN(C(=O)c2cc3n(n2)C(C(F)(F)F)CC(c2ccco2)N3)CC1` (stereo unspecified), the survival was inactive: 81%.

Take `CCOc1ccc(C(c2c(O)cc(C)n(Cc3ccco3)c2=O)N2CCN(c3ccccc3)CC2)cc1` (stereo unspecified): the survival was inactive: 75%.

As for `CCCc1cnc2c(c1SCC(=O)Nc1ccccc1F)c(=O)n(C)c(=O)n2C`, the survival is inactive: 119%.

Take `CCOC(=O)c1cnc(SC)nc1Nc1ccccc1`: the survival is inactive: 84%.

On to `Cc1cccc(CNC(=O)C2CCN(S(=O)(=O)c3ccc4c(c3)CCCN4C(=O)C3CCC3)CC2)c1`, for which the survival was inactive: 70%.

Consider `CCn1c2c(c(=O)n3ncc(C(=O)Nc4ccc(Cl)cc4C)c13)CN(Cc1ccc(OC)cc1)CC2`, for which the survival is inactive: 87%.

As to `Brc1cccc(-c2nnn3c2nc(N2CCCCC2)c2ccccc23)c1`, the survival is inactive: 62%.

Take `Cc1ccc2nc3c(c(Nc4ccc(C)c(C)c4)c2c1)CCC3`: the survival is active: 38%.

Take `O=C(CNS(=O)(=O)c1cccs1)N1CCN(c2ccccc2F)CC1`: the survival was inactive: 51%.

`Cc1ccc(F)cc1S(=O)(=O)N1CCC(c2nc3ccccc3s2)CC1`: the survival is inactive: 89%.

Turning to `COc1ccc(CCNC(=O)CCCCn2c(=O)c3ccccc3n(Cc3ccccc3)c2=O)cc1OC`, the survival is inactive: 88%.

Turning to `Fc1ccccc1N1CCN(c2ncnc3c2nc2n3CCCC2)CC1`, the survival was inactive: 84%.

In the case of `Clc1cccc(-n2ncc3c(NC4CCCCCC4)ncnc32)c1`, the survival was inactive: 91%.

As to `CCOC(=O)c1ccc(NC(=O)CSc2ncc(S(=O)(=O)c3ccc(C)c(Cl)c3)c(=O)[nH]2)cc1`, the survival was inactive: 76%.

For the molecule `CN(C)c1ccc(NC(=O)Cn2cc(S(=O)(=O)Cc3ccccc3Cl)c3ccccc32)cc1`, the survival is inactive: 76%.

For the molecule `CCCCN(C)c1nnc(NC(=O)Nc2ccc(Br)c(C)c2)s1`, the survival is inactive: 87%.

On to `CCn1cc2nc(SCC(=O)Nc3ccc(OC)cc3OC)n(Cc3ccc(Cl)cc3)c(=O)c2n1`, for which the survival was inactive: 80%.

For `CCOCCc1nn2c(=O)cc(COC(=O)c3ccccc3NC(=O)c3ccc(C)cc3)nc2s1`, the survival is inactive: 81%.

Turning to `CCOc1ccc(NC(=O)Cn2cc(C(=O)c3ccc(C)cc3)c(=O)c3cc4c(cc32)OCO4)cc1`, the survival was inactive: 70%.

Turning to `CCc1ccc(CN(Cc2ccco2)C(=O)c2cc(-c3ccc(C)c(F)c3)on2)cc1`, the survival is inactive: 100%.

Take `Cc1ccc(N(Cc2cccs2)C(=O)c2ccccc2[N+](=O)[O-])cc1`: the survival was inactive: 74%.

Turning to `CCC(C)NC(=O)Cn1c(=O)c2cccn2c2ccc(F)cc21` (stereo unspecified), the survival is inactive: 82%.

For `CCCOc1cccc(C(=O)N2CCCCC2CCN2CCCCC2)c1` (stereo unspecified), the survival was inactive: 79%.

Regarding `O=C(Nc1ccc(F)cc1Cl)c1cnc(N2CCOCC2)c2ccccc12`, the survival was inactive: 104%.

As to `Cc1ccccc1Cn1c(C)c(CNCCCc2ccccc2)c(C(=O)O)c1C`, the survival is inactive: 78%.

Turning to `COc1ccc(C2C=C(c3ccc(Cl)cc3)Nc3nc(NC(=O)CCC(=O)O)nn32)cc1` (stereo unspecified), the survival is inactive: 74%.

Turning to `Cc1ccccc1Nc1c(-c2c[nH]c3ccccc23)nc2cccc(C)n12`, the survival was inactive: 144%.
